Data reported in PMC4336329 (PLoS ONE, 2015).
Hit rate of the full screen: of about 310,000 compounds, about 2,200 (0.71%) showed an effect of 50% or more. The effect is printed as a negative number. The list shows a part of the results.

What follows are compounds tested against human ether-à-go-go-related gene (hERG) potassium channel (human, UniProt Q12809) (assay: primary screen, population patch clamp on CHO cells stably expressing hERG).
Chain of human ether-à-go-go-related gene (hERG) potassium channel (Q12809 whole entry, looked up): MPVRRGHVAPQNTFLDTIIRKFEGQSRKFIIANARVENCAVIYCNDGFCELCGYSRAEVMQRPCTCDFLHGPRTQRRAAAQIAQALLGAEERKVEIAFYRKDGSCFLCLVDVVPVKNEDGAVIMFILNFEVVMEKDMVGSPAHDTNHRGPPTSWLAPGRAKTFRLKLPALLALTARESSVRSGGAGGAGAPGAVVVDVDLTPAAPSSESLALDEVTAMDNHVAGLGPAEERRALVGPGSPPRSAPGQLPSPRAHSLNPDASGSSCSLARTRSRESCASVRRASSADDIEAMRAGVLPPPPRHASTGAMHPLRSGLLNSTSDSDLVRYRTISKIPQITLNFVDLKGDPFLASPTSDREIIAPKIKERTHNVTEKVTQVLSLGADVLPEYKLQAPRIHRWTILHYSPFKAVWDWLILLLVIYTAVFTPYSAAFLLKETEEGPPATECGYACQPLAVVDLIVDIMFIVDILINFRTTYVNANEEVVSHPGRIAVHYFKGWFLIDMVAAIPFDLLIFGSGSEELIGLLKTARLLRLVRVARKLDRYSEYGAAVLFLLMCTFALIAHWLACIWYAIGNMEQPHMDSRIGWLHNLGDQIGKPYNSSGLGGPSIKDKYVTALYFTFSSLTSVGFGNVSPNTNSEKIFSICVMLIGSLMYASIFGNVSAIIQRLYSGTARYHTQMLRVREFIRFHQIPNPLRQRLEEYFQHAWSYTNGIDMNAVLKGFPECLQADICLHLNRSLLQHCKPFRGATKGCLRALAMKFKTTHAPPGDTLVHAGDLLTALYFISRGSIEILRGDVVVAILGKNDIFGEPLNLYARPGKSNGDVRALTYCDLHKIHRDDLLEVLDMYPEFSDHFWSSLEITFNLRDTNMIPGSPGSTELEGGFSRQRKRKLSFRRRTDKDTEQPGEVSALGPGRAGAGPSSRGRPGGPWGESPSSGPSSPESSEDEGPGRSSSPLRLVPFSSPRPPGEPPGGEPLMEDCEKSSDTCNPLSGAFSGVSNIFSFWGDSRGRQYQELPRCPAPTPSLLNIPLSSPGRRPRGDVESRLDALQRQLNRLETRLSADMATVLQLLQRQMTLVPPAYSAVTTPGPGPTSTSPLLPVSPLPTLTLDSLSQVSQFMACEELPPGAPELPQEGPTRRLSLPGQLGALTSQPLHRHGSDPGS

Compound | hERG current change (%, negative = inhibition) at 1uM [%]
CS(=O)(=O)c1ccc(Cl)c(C(=O)NC2CCSc3ccccc32)c1 (stereo not shown) | 4.24
Cc1ccc(S(=O)(=O)N2CCOCC2)cc1C(=O)Nc1nc2ccccc2[nH]1 | 7.23
C=CCn1c(O)c(C(C)=NCCN2CCN(C(=S)NC)CC2)c(=O)[nH]c1=O | 4.36
O=C(Cc1ccccc1)Nc1cccc(NC(=O)c2cccs2)c1 | 4.98
CCN1CCN(C(=S)Nc2ccc3nc(N4CCN(CC)CC4)cc(C)c3c2)CC1 | 2.12
COc1cccc(-c2nn(C)c3sc(C(=O)Nc4ccc5c(c4)OCCO5)cc23)c1 | 13.8
Clc1cccc(OCc2nnc(-c3ccccc3Br)o2)c1 | 9.74
O=C(COc1ccc2c3c(c(=O)oc2c1)CCCC3)NCc1ccccn1 | 11.8
O=C(COC(=O)C1COc2ccccc2O1)NC(=O)Nc1ccc2c(c1)OCCO2 (stereo not shown) | 4.33
CCn1nc(C(=O)OCC(=O)Nc2ncc(Cl)c(C)c2Cl)c2ccccc2c1=O | 8.93
COc1ccccc1N1CCN(CC(O)COc2ccc3c(C)cc(=O)oc3c2)CC1 (stereo not shown) | 33.4
Cl.O=C(CNCc1cccs1)Nc1ccc(S(=O)(=O)N2CCCCC2)cc1 | 1.26
CN(C)/C=C1\N=C(c2ccc3c(c2)OCO3)OC1=O | 19.3
CN1C(=O)N(C)C2(c3ccccc3)N(C)C(=O)NC12c1ccccc1 (stereo not shown) | -3.5
CC(C)(C)c1ccc(/C=C2/SC(N3CCCC3)=NC2=O)cc1 | 0.766
COc1ccc(NC2CCCN(C(=O)c3csc(C)n3)C2)cc1 (stereo not shown) | 1.29
CCC(C)Cn1c(C)nc2ccccc21 (stereo not shown) | 13.4
O=S(=O)(c1cccc2nonc12)N1CCN(c2ccccc2F)CC1 | -5.98
Nc1ncc(Br)cc1N=Cc1ccccc1 | 11.4
NC(=O)CC(NC(=O)c1ccccc1)c1ccc(N2CCc3ccccc3C2)c([N+](=O)[O-])c1 (stereo not shown) | 8.88
C=CCn1c(=O)c2c(nc3n2CC(C)CN3c2cccc(OC)c2)n(C)c1=O (stereo not shown) | 5.24
CCOC(=O)C1CCN(C(=O)c2cc3cc4ccc(C)cc4nc3o2)CC1 | 13.5

Compound | hERG current change (%, negative = inhibition) at 1uM [%]
CCOC(=O)CSC1=NC(=O)/C(=C/c2ccc(OC)cc2)S1 | 17
O=C(O)c1cnn(-c2ccccc2)c1-n1cccc1 | 13
O=C(O)CCCCCN1C(=O)C(O)=C(C(=O)/C=C/c2ccccc2)C1c1ccc2c(c1)OCO2 (stereo not shown) | 8.57
COc1ccc(NC(=S)Nc2ccccc2)cc1 | 15.1
Nc1nc(SCC(=O)Nc2ccc(Cl)cc2)[nH]c(=O)c1-c1ccccc1 | 18
O=C(Nc1ccc2nc(-c3cccs3)[nH]c2c1)c1cccs1 | 7.18
O=C1CC(c2ccco2)CC(O)=C1C=Nc1cc(Cl)ccc1Cl (stereo not shown) | 6.6
CC(C)Oc1ccc(C2CNC(=O)C2)cc1 (stereo not shown) | 11.4
CCN(C(=O)COC(=O)c1nc(Cl)ccc1Cl)C1CCS(=O)(=O)C1 (stereo not shown) | 9.86
COc1cc(C(=S)N(C)C)ccc1O | 1.63
O=C(Nc1ccc(SC(F)F)cc1)c1cc(-c2ccncc2)nc2ccccc12 | -2.06
Cc1ccc(S(=O)(=O)N[C@H](C(=O)NCC2CCC(C(=O)O)CC2)C(C)C)cc1 (stereo partly shown) | 8.88
CC(=O)Nc1ccc(-c2ccnc(-c3ccc(NC(C)=O)cc3)n2)cc1 | 2.64
Cc1cccc(C)c1NC(=O)COC(=O)c1ccccc1[N+](=O)[O-] | 11.7
CC(C)Nc1nc(Oc2ccc(=O)n(-c3ccccc3)n2)nc(N(C)C)n1 | 9.37
CC(C)CSc1nc(N2CCOCC2)c2c(c1C#N)CC(C)(C)SC2 | 3.74
CCN(CC)c1ccc(NC(=O)c2ccc(=O)[nH]c2)cc1S(=O)(=O)Nc1ccccc1OC | 8.97
Br.COc1ccc(-c2csc(CCN3N=C(C)CC3=O)n2)cc1 | 12.5
COc1cc(NC(=O)CN2C(=O)NC(C)(c3ccc(OC(F)F)cc3)C2=O)cc(OC)c1OC (stereo not shown) | 10.6
COc1ccc(-c2ccc(CCC(=O)O)n2CC(C)C)cc1 | 3.17
C/C(=N\NC(=O)CC(C)C)c1ccc(Cl)c(Cl)c1 | 34.8
CCc1ccc(OCC(=O)N2CCN(CC(=O)Nc3ccccc3Cl)CC2)cc1 | -23.9

Compound | hERG current change (%, negative = inhibition) at 1uM [%]
CC(C)N(C(=O)Cn1c(SCC(=O)N2CCN(c3ccccc3)CC2)nc2ccccc21)C(C)C | 12.3
CC(=O)CCCC(NS(=O)(=O)CCC(Cl)(Cl)Cl)c1ccccc1 (stereo not shown) | 8.94
Cc1ccc(NC(=O)CCC(=O)NNC(=O)c2ccco2)cc1C | 3.97
CCCCNC(=O)CC1N=C2c3ccccc3N=C(SCC(=O)Nc3ccccc3C)N2C1=O (stereo not shown) | 5.85
Cc1n[nH]c(=O)c2c(NC(=O)CSc3nnnn3-c3ccc(O)cc3)oc(C)c12 | 17.8
O=C(c1sc2ccccc2c1Cl)N(Cc1cccs1)C1CCS(=O)(=O)C1 (stereo not shown) | 5.18
COc1ccccc1N1CCN(S(=O)(=O)c2ccc(Cl)s2)CC1 | 5.51
O=C(COC(=O)c1ccccc1Cl)Nc1cccnc1Cl | 7.73
Cc1ccccc1Nc1cc(C(=O)NCc2ccco2)c2ccccc2n1 | 9.23
CC(NC(=O)/C(C#N)=C1\N=C(NC(=O)c2ccco2)c2ccccc21)c1ccccc1 (stereo not shown) | 9.2
COc1ccc(-c2nnc(SCC(=O)N3CCc4ccccc4C3)o2)cc1 | 1.44
CCOc1ccc(CCNC(=O)c2cccc(S(=O)(=O)N3CCCC3)c2)cc1OCC | -8.1
CC(OC(=O)c1ccco1)C(=O)NCc1ccc2c(c1)OCO2 (stereo not shown) | 12.8
FC(F)(F)c1cc(-c2ccccc2)nc(N2CCCCCC2)n1 | 11.7
CSCC[C@H](NC(=O)Nc1ccc(Oc2ccccc2)cc1)C(=O)O | 12.3
COc1cc(OC)cc(C(=O)NCCC(=O)NCCc2ccc(OC)c(OC)c2)c1 | 4.96
CCN(CC)S(=O)(=O)c1ccc(OC)c(NC(=O)c2cn(CC)c3nc(C)ccc3c2=O)c1 | 15
Cc1cccc(OCCCn2ccnc2)c1 | 0.0693
O=c1c2sccc2nc(SCc2cc(=O)n3cc(Cl)ccc3n2)n1-c1ccc(F)cc1 | 7.01
Cc1ccccc1NC(=O)Cn1nc(C(=O)O)c2ccccc2c1=O | 11.3
CCN(CC)CCCNc1nc(N)c([N+](=O)[O-])c(NCCO)n1 | 9.54
Cc1ccccc1CN1CCN(CC(=O)NC(C)c2ccccc2)CC1 (stereo not shown) | 3.82

Compound | hERG current change (%, negative = inhibition) at 1uM [%]
COc1ccc(N/C=C2/CCCCC2=O)cc1 | 3.34
COc1ccc(OCC(=O)N2CCN(C3CCC(c4ccccc4)CC3)CC2)cc1 (stereo not shown) | -5.45
CSc1nsc(N/N=C/c2ccccc2)c1C#N | 11.9
Cc1ccc(/C=C/C(=O)OCC(=O)NC(C)c2ccccc2)o1 (stereo not shown) | 8.83
O=C(NC1(C(F)(F)F)NC(=O)N(CC2CCCCC2)C1=O)c1ccco1 (stereo not shown) | 11.1
CCN(C(=O)Cn1c(=O)n(Cc2ccccc2)c(=O)c2ccccc21)c1cccc(C)c1 | 6.17
CCC(=O)OCC(=O)Nc1cc([N+](=O)[O-])ccc1Cl | 12.8
CCC(CO)Nc1nc2ccc(Cl)cc2c2ccccc12 (stereo not shown) | 15.9
O=C(NC1CCCCC1)C(=S)NC1CCCCC1 | 19.8
CC(C)(C)c1ccc(C(=O)Nc2ccc([N+](=O)[O-])cn2)cc1 | 9.99
Cc1cccc(C)c1NC(=S)N/N=C/c1ccccc1C(=O)O | 15.4
CN(C)C(CNC(=O)CNC(=O)c1ccc(Br)cc1)c1ccccc1 (stereo not shown) | 0.489
COCC(=O)Nc1nnc(COc2ccccc2)s1 | 9.91
Cc1sc(-c2ccccn2)nc1OC(=O)c1ccc(Cl)cc1 | 12
Cc1csc2ncc(C(=O)Nc3ccccc3Cl)c(=O)n12 | 3.77
Cc1ccc(S(=O)(=O)n2nccc2-c2c(-c3ccccc3)noc2C)cc1 | 12
CCOC(=O)c1c(CN2CCOCC2)n(-c2ccccc2)c2cc(Br)c(O)cc12.Cl | 9.93
COc1ccc(CCN2C(=O)CC(NCc3ccc4c(c3)OCO4)C2=O)cc1OC (stereo not shown) | 3.91
CCN1C(=O)/C(=C/C=C2/SCCN2C)SC1=S | 13.3
O=C(Nc1nc(-c2ccccc2)c(-c2ccccc2)s1)c1ccc(S(=O)(=O)N(CCCl)CCCl)cc1 | 1.44
O=C(Cn1nc(C(F)F)cc1C(F)F)NNC(=S)Nc1ccc([N+](=O)[O-])cc1 | 11.9
CC(=O)NC(CSC(CC(=O)c1ccco1)c1ccc(C)cc1)C(=O)O (stereo not shown) | 26.7
